Results as given in the BET-seq Pho4 binding data (Le et al. 2018).
The other results are listed elsewhere or left out. The energies were worked out here from pooled read counts, against the library average; single values are noisy.

What follows are sequences tested against T1, Pho4 (S. cerevisiae) (UniProt P07270) (assay: relative binding free energy (BET-seq); higher = weaker binding). Conditions: reference: library average.
T1 sequence: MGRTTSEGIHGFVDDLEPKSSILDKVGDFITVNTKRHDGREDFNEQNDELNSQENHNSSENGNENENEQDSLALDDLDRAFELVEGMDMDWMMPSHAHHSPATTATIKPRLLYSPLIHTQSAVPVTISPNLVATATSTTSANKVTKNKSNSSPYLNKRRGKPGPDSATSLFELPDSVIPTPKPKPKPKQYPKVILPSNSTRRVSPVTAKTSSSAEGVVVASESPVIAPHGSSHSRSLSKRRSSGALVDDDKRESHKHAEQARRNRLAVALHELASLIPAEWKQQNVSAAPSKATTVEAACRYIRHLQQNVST

| Sequence | relative binding free energy |
| --- | --- |
| TGTATCACGTGCGCGG | -0.126 kJ/mol |
| CGCGGCACGTGTTTAG | 0 kJ/mol |
| ATGTACACGTGTTGCG | 0.377 kJ/mol |
| TATAGCACGTGTGATT | -0.209 kJ/mol |
| GTTGACACGTGCGTGT | -0.293 kJ/mol |
| AAAAGCACGTGTGTAG | 0.251 kJ/mol |
| CTTTGCACGTGAATGG | 1.21 kJ/mol |
| GTTGTCACGTGTAGCA | 0.669 kJ/mol |
| CTTTGCACGTGAGTTA | 0.502 kJ/mol |
| TCATGCACGTGGATGG | 0.0837 kJ/mol |
| TGTGCCACGTGCTGTG | -0.669 kJ/mol |
| AGAGACACGTGAAGGT | 0.502 kJ/mol |
| TTTCACACGTGGATGG | 0.377 kJ/mol |
| AAATGCACGTGGTGAT | 0 kJ/mol |
| ATTAGCACGTGCTGAT | -0.335 kJ/mol |
| AGGTCCACGTGTTTTG | 0.0837 kJ/mol |
| GTACTCACGTGGTGAG | 1 kJ/mol |
| GGTAGCACGTGAGTAA | 0.92 kJ/mol |
| TATTTCACGTGGGAAG | 0.586 kJ/mol |
| GAGGTCACGTGGGCTA | -0.335 kJ/mol |
| CGGGGCACGTGGTTTT | -0.209 kJ/mol |

| Sequence | relative binding free energy |
| --- | --- |
| GTTAACACGTGTGGGA | 0.126 kJ/mol |
| CTTTCCACGTGTTTTG | 0.126 kJ/mol |
| TAACGCACGTGATTTG | 0.418 kJ/mol |
| GTTGGCACGTGGTCTC | -0.502 kJ/mol |
| GGAGTCACGTGCTCGG | 0.209 kJ/mol |
| GTGTCCACGTGATGGT | 0.586 kJ/mol |
| TCGATCACGTGATGTT | 0.502 kJ/mol |
| AGGAACACGTGCGTGT | 0.377 kJ/mol |
| TACATCACGTGTGGTG | 0.209 kJ/mol |
| GAGGACACGTGTGTTT | 0.628 kJ/mol |
| TTTTGCACGTGTGCCA | 0.293 kJ/mol |
| CATGGCACGTGTGGCT | -0.167 kJ/mol |
| TTGGGCACGTGTGCTG | -0.46 kJ/mol |
| TATTTCACGTGTATCT | 0.92 kJ/mol |
| ATATTCACGTGTGTTC | 0.669 kJ/mol |
| TGTAACACGTGTAGAG | 0 kJ/mol |
| GGATACACGTGCTTGG | 0.544 kJ/mol |
| ATATGCACGTGGGGCT | -0.544 kJ/mol |
| GTGTTCACGTGCAGTC | 1.38 kJ/mol |
| GGTAGCACGTGAAGGG | 1.38 kJ/mol |
| TTGGTCACGTGAGATG | 1.51 kJ/mol |

| Sequence | relative binding free energy |
| --- | --- |
| AGTGTCACGTGCAGAT | 0.0418 kJ/mol |
| ATGGACACGTGGGAGG | -0.502 kJ/mol |
| GGGGGCACGTGGTCCT | -0.795 kJ/mol |
| GATGGCACGTGGGTCC | -0.418 kJ/mol |
| TTAAGCACGTGACGGT | 0.251 kJ/mol |
| TTAGTCACGTGTACGG | 0.335 kJ/mol |
| GGTGGCACGTGGTTGG | -0.126 kJ/mol |
| TGATTCACGTGAGCGT | 1.05 kJ/mol |
| GAATTCACGTGGGGGG | 0.962 kJ/mol |
| TATCTCACGTGGTCGT | 0.586 kJ/mol |
| TTGGGCACGTGGGGCA | -1 kJ/mol |
| GGCGACACGTGGGGTA | -0.502 kJ/mol |
| TGTATCACGTGAAGGG | 1.8 kJ/mol |
| GAATGCACGTGATTAT | 1.38 kJ/mol |
| GGGGTCACGTGTGCGC | 0.209 kJ/mol |
| TGGGGCACGTGAAAAG | 1.26 kJ/mol |
| CTTATCACGTGGGGGT | -0.126 kJ/mol |
| TATTTCACGTGCTGTG | 0.586 kJ/mol |
| AGGTTCACGTGATTCT | 0.753 kJ/mol |
| GTGATCACGTGGAGAA | 0.628 kJ/mol |
| GTCCTCACGTGTTTGT | 1.26 kJ/mol |
